Test results as given in PubChem BioAssay AID686978 (National Center for Advancing Translational Sciences (NCATS), 2013).
The campaign covered roughly 420,000 compounds. About 64,000 (15%) were called active. This list was built around the results that the source calls inconclusive (neither active nor inactive); the mix of calls is not that of the screen. The call rests on the fitted dose curve; in most records, active means well fitted inhibition curve with a large enough effect; inconclusive means small, poorly fitted or top-dose-only effect; inactive means flat fitted curve, though single readings scatter. Potencies of inconclusive entries are left out as doubtful fits.

Assay: qHTS for Inhibitors of human tyrosyl-DNA phosphodiesterase 1 (TDP1): qHTS in cells in absence of CPT; further: nearly all actives have a fitted effect of over 55% in size
Details: DT40 Tdp1-/- hTDP1 cells, no CPT, ATP luminescence, 48 h; activity change, negative = growth inhibition: at 46.2 µM (top of the series) unless noted
Procedure, shortened: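 Chicken DT40 Tdp1-/- cells complemented with human TDP1, screened without camptothecin (DMSO vehicle only), 400 cells/well. Compounds pin-transferred, cells incubated at 37 °C for at least 48 hr. Growth read as ATP-dependent luminescence (CellTiter-Glo, 30 min at RT).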
On the % scale 0 is the no-effect control and ±100 the full control effect; potency means the concentration at half of the fitted maximal effect; tags describe the fitted curve by direction and shape.

SMILES | Potency | activity change, negative = growth inhibition
O=C(Nc1ccc([N+](=O)[O-])cc1)c1cnn2c1NC(=C1CC1)C=C2C(F)F | inactive | 
Cc1nc2ccc(NC(=O)COc3cccc(F)c3)cc2s1 | inconclusive [inhibitor, single point] | 
COCc1c(C(=O)N2CCN(C3CCCC3)CC2)cnn1-c1ncc2c(n1)-c1ccccc1CCC2 | inactive | 
O=C1CCCN1CCc1cccc2ccccc12 | inconclusive [inhibitor, partial curve, poor fit] | 
CCOC(=O)CSc1nnc(NC(=O)CCc2ccccc2)s1 | inactive | 
COC(=O)C1=C(C)N(CC2CC2)C(=O)N[C@H]1c1ccc(Br)cc1 | inconclusive [inhibitor, single point] | 
O=C(/C=C/c1ccccc1)Nc1ncn[nH]1 | active: 10.3 µM | 
CCCc1ccc(Oc2cc(N3CCOCC3)nc(-c3ccccc3)n2)cc1 | inconclusive [inhibitor, single point] | 
NC(=O)c1ccccc1N1CCCCC1 | inconclusive [inhibitor, single point] | 
CCOC(=O)Nc1ccc2c(c1)N(C(=O)CCN1CCOCC1)c1ccccc1S2=O (stereo not drawn) | active: 5.8 µM | 
Cn1c(=O)c2c(nc(CN3CCc4ccccc4C3)n2CCCO)n(C)c1=O | inconclusive [inhibitor, single point] | 
CCCCNC(=O)NS(=O)(=O)c1ccc(NS(=O)(=O)c2ccccc2)cc1 | inactive | 
CC1=NN(Cc2ccccc2)C(=O)C1C(c1ccccc1)C(C#N)C#N (stereo not drawn) | active: 25.9 µM | 
Cc1cc(=O)n2[nH]c(-c3ccccc3Cl)cc2n1 | inconclusive [inhibitor, partial curve, poor fit] | 
COc1ccc(Oc2ccc(N/C=C/C(=O)C(C)(C)C)cc2)cc1 | inactive | 
CS(=O)(=O)Nc1cccc(-c2nc(NCc3ccccc3)c3ccccc3n2)c1 | inactive | 
O=C(NCCc1c[nH]c2ccccc12)c1[nH]c(C(F)(F)F)nc1-c1ccccc1 | inconclusive [inhibitor, single point] | 
COc1cccc(Nc2nc(C(N)CO)cs2)n1 (stereo not drawn) | inconclusive [inhibitor, single point] | 
O=S(=O)(ON(c1ccccc1)S(=O)(=O)c1ccccc1)c1ccccc1 | inactive | 
CCN(CC(=O)Nc1cc(Cl)ccc1C)C(=O)c1oc2ccc(OC)cc2c1C | inconclusive [inhibitor, single point] | 
Cc1cccc(NC(=O)COC(=O)C(NC(=O)c2cccc(S(=O)(=O)N3CCOCC3)c2)C(C)C)c1 (stereo not drawn) | inactive | 
CCOC(=O)c1cc2c(=O)n3ccccc3nc2n(CC(C)C)c1=NC(=O)C(C)Oc1ccccc1 (stereo not drawn) | inconclusive [inhibitor, full curve] | 
COC(=O)[C@@]1(Cc2ccc(F)cc2)[C@H]2c3cc(C(=O)N4CCCC4)n(CCCNc4ncc(C(F)(F)F)cc4Cl)c3C[C@H]2CN1C(=O)c1ccccc1 | active: 16.4 µM | 
CCn1c(=N)n(CC(=O)c2cccc([N+](=O)[O-])c2)c2ccccc21 | active: 20.6 µM | 
COc1ccc(-c2nc3ccccc3c(=O)n2NC(=O)Cc2ccccc2)cc1 | inactive | 

SMILES | Potency | activity change, negative = growth inhibition
COc1ccc(-c2cc3ccccc3n2CC(O)CN2CCN(CCO)CC2)cc1 (stereo not drawn) | inconclusive [inhibitor, single point] | 
COc1ncc2nc(-c3ccccc3)c(=O)n(C3CC3)c2n1 | inactive | 
Cc1ccc(S(=O)(=O)N2CCN(CC(=O)N/N=C\c3ccc(Cl)c([N+](=O)[O-])c3)CC2)cc1 | inconclusive [inhibitor, single point] | 
CCN(CC)C(=O)C1CCN(Cc2cn(C)nc2-c2ccc(Oc3ccccc3)cc2)CC1 | active: 20.6 µM | 
Cc1ccc(Nc2ccc(N3CCN(C(=O)c4ccc([N+](=O)[O-])cc4Cl)CC3)nn2)cc1 | active: 18.4 µM | 
CCOc1ccc(NC(=O)CCS(=O)(=O)c2cc3c4c(c2)CCN4C(=O)CC3)cc1 | inactive | 
O=C(CCN1C(=O)C2CCCCC2C1=O)Nc1ccc(OC(F)F)cc1 (stereo not drawn) | inactive | 
CCc1ccccc1NC(=O)CCc1c(C)nc2cc(-c3ccccc3)nn2c1C | active: 18.4 µM | 
CCN(CC(=O)Nc1ccc(NC(C)=O)cc1)C(=O)CCCOc1cccc(C)c1 | inconclusive [inhibitor, partial curve] | 
CN(C)c1ccc(/C=C/c2c3c(nc4ccccc24)CCCC3)cc1 | inconclusive [inhibitor, single point] | 
Cc1cc(NC(=O)c2cc(-c3ccco3)on2)no1 | inconclusive [inhibitor, single point] | 
COc1ccc2c(c1)c(CC(=O)OCC(N)=O)c(C)n2C(=O)c1ccc(Cl)cc1 | inconclusive [inhibitor, single point] | 
CCn1cc(C(=O)NCCC(C)C)c(=O)c2cc(S(=O)(=O)N3CCCCC3)ccc21 | inconclusive [inhibitor, partial curve] | 
CN(Cc1c(F)cccc1Cl)C(=O)c1ccc(NC(=O)CC2SC(N3CCCC3)=NC2=O)cc1 (stereo not drawn) | active: 18.4 µM | 
c1ccc(CCSc2ncnc3nc[nH]c23)cc1 | active: 8.2 µM | 
Cc1nnc(N2CCN(C(=O)Nc3cc(F)ccc3F)CC2)c2nn(-c3ccc(Cl)cc3)c(C)c12 | active: 20.6 µM | 
Cc1cc(C)n(-c2nc(NCCN(C)C)c3c4c(sc3n2)CCCC4)n1 | active: 6.51 µM | 
CC(OC(=O)c1ccco1)C(=O)NC1CCCCC1 (stereo not drawn) |  | inconclusive: -30% [inhibitor]
CC(=O)OC(C)OC(=O)C(C)c1ccc(-c2ccccc2)c(F)c1 (stereo not drawn) | inactive | 
CC1=NN(C(N)=S)C(=O)C1N=Nc1ccccc1Cl (stereo not drawn) | active: 2.91 µM | 
O=C(Nc1ccccc1Cl)c1sccc1-c1ccccc1 | inconclusive [inhibitor, single point] | 
c1cncc(C(c2nnnn2C2CCCCC2)N2CCCCC2)c1 (stereo not drawn) | inactive | 
O=C(Nc1ccccc1)N1CCCC(c2nc(-c3cccs3)no2)C1 (stereo not drawn) | inconclusive [inhibitor, partial curve] | 
COC(=O)c1ccc(CSc2ccccc2NC(=S)Nc2cccc(C(F)(F)F)c2)o1 | inconclusive [inhibitor, single point] | 
O=C(Nc1nc(-c2ccc(F)c(F)c2)cs1)C1=COCCO1 | inconclusive [inhibitor, partial curve] | 

SMILES | Potency | activity change, negative = growth inhibition
CCOc1ccc(NC(=O)COc2ccc(C(=O)NCC3CCCO3)cc2OC)cc1 (stereo not drawn) | inactive | 
COc1ccc(C)cc1NC(=O)CSc1ccc(-c2sc(C)nc2C)nn1 | inconclusive [inhibitor, single point] | 
CCCCCCCCCC(=O)NNC(=O)c1c(O)c2ccccc2n(CC)c1=O | active: 8.2 µM | 
O=C(Cn1c(=O)n(CCc2c[nH]c3ccccc23)c(=O)c2cccnc21)Nc1ccccc1F | active: 23.1 µM | 
OC1CCC(NC(=S)Nc2ccc(SC(F)F)cc2)CC1 (stereo not drawn) | inconclusive [inhibitor, partial curve] | 
CC12CC3CC(C)(C1)CC(C(=O)NCc1ccncc1)(C3)C2 | inactive | 
CCCCn1c(N)c(N(CCOC)C(=O)C2CCN(c3ncnc4sc(C)c(C)c34)CC2)c(=O)[nH]c1=O | inconclusive [inhibitor, single point] | 
COc1ccc(N2CCN(C(=O)c3ccc(N4C(=O)NC5CC4(C)Oc4ccccc45)cc3)CC2)cc1 (stereo not drawn) | inconclusive [inhibitor, partial curve] | 
CN(C)S(=O)(=O)c1cccc(NC(=S)N/N=C/C2CC=CCC2)c1 (stereo not drawn) | inactive | 
O=C(O)CCN1C(=O)/C(=C/c2cn(-c3ccccc3)nc2-c2cccs2)SC1=S | inconclusive [inhibitor, single point] | 
CCCCCCCCCCCC(=O)NC(C(=O)O)C(O)c1ccccc1 (stereo not drawn) | inactive | 
CCN(Cc1ccccc1)C(=O)CCS(=O)(=O)c1ccc2c(c1)NC(=O)CO2 | inactive | 
COc1cc(OC)c2c(-c3cccc(-c4ccc(NC(C)=O)cc4)c3)cc(=O)oc2c1 | active: 5.8 µM | 
Cc1ccccc1-n1c(O)c(/C=C/C=Nc2ccccc2)c(=O)[nH]c1=O | inactive | 
Cc1ccc(-n2ncc(-c3n[nH]c(=S)o3)c2N)cc1C | inconclusive [inhibitor, single point] | 
CCc1ccc(NC(=O)CSc2ccc(-c3sc(C)nc3C)nn2)cc1 | inconclusive [inhibitor, single point] | 
Cc1c(N=C2N=C(NC(=O)c3cccs3)c3ccccc32)c(=O)n(-c2ccccc2)n1C | inconclusive [inhibitor, single point] | 
CCC(C)NC(=O)c1ccc(N2CC3CC(C2)c2cccc(=O)n2C3)c(NC(=O)c2c(F)cccc2F)c1 (stereo not drawn) | inconclusive [inhibitor, partial curve] | 
COC(=O)[C@H](CC(C)C)NC(=O)NCCC1=CCCCC1 | inactive | 
O=c1oc2ccccc2c(NC2CCCCC2)c1NS(=O)(=O)c1ccc(F)cc1 | inconclusive [inhibitor, single point] | 
O=C(NCc1ccccc1Cl)c1csc([C@@H]2O[C@H](CO)[C@@H](O)[C@H]2O)n1 | inactive | 
CSC[C@H]1CN(CCc2ccccc2)C(=O)[C@@H]1CC(=O)Nc1ccc(Br)cc1 | inconclusive [inhibitor, single point] | 
O=C(C1=C[C@H](c2ccc(C(F)(F)F)cc2)C[C@H](OCCCCO)O1)N1CCOCC1 | inactive | 
